PubChem BioAssay AID1347120 (National Center for Advancing Translational Sciences (NCATS), 2019)
Screen size: about 390,000 compounds; about 930 (0.24%) were called active. Inconclusive means that the source gave no clear call. Such entries were picked first, then a sample of the others. Calls come from the whole dose curve; as a rule, active = well fitted activation curve with a large enough effect; inconclusive = small, poorly fitted or top-dose-only effect; inactive = no such curve, though single readings can be large or run the other way. Where the call is inconclusive, the potency comes from a doubtful curve fit.

test: qHTS for Suppressors of FUS Proteinopathy: Primary screen using FUS-linked yeast assay; note: nearly all actives have a fitted effect of over 55% in size; conditions: S. cerevisiae FUS-expressing, OD600, 24 h; Potency: growth rescue; series mostly up to 76.6 µM
How it was run: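 Yeast FUS proteinopathy model; galactose-induced FUS (2%), starting OD 0.005. Cpds in dilution series, 24hr, 30C, 99% humidity. Abs 600 nm growth. Pos ctrl CP55940 (top 92uM final); neg ctrl DMSO.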
Potency is the fitted concentration of half-maximal effect; tags give direction and shape of the fitted curve.

| Structure (SMILES) | Potency |
| --- | --- |
| Cc1ccc(NC(=O)c2ccc3c(c2)C(=O)N(CC2CCCO2)C3=O)cc1C (centres undefined) | inactive |
| O=C(N/N=C/c1ccccn1)c1[nH]c2ccc([N+](=O)[O-])cc2c1-c1ccccc1 | active: 31.6 µM |
| Cc1ccc(S(=O)(=O)N(C)CC(=O)Nc2nc3ccccc3s2)cc1 | inactive |
| C#CCOCCOCCOCCNc1nc(N2CCN(C(=O)CCCCCCCCCCNC(=O)[C@H](CCCCN)n3cc(C)nn3)CC2)nc(N2CCN(C(=O)CCCCCCCCCCNC(=O)[C@@H]([C@H](C)O)n3cc(C)nn3)CC2)n1 | active: 11.2 µM |
| CC(C)(C)NC(=O)C(c1ccncc1)N(Cc1cccs1)C(=O)Cn1nnc(-c2ccc(F)cc2)n1 (centres undefined) | inconclusive: 35.5 µM [activator, single point] |
| COc1cccc(-c2cc(NC=O)c3ncc(-c4ccc(C(C)=O)cc4)n3c2)c1 | inconclusive: 31.6 µM [activator, single point] |
| Cc1cccc(N2CCN(C(=O)C3(S(=O)(=O)c4ccc(Cl)cc4)CC3)CC2)c1C | inconclusive: 28.2 µM [activator, single point] |
| Cc1cc(C(=O)C(=O)Nc2nncs2)c(C)n1-c1ccc(Cl)cc1 | inactive |
| CC1CCCCN1c1ncnc2ccccc12 (centres undefined) | inconclusive: 7.08 µM [activator, full curve, poor fit] |
| O=C(c1ccc2c(c1)N(Cc1cccc(Cl)c1)C(=O)c1ccccc1S2=O)N1CCN(c2cccc(C(F)(F)F)c2)CC1 (centres undefined) | inconclusive: 12.6 µM [activator, partial curve] |
| O=C(Cn1c(=O)n2nc(-c3cccc(F)c3)nc2c2ccccc21)N1CCN(c2ccc(F)cc2)CC1 | inactive |
| O=C(N[C@@H]1C/C=C\C[C@@H](CC(=O)N(CCO)Cc2ccccc2)C(=O)N[C@H](Cc2ccccc2)COC1=O)OCC1c2ccccc2-c2ccccc21 | inconclusive: 44.7 µM [activator, partial curve, poor fit] |
| Cc1cc(NS(=O)(=O)c2ccc3c(c2)OCCO3)no1 | inactive |
| COc1ccc(N(C(=O)c2ccccc2)S(=O)(=O)c2ccc3c(c2)n(C)c(=O)n3C)cc1 | inactive |
| CC(C)Oc1cccc(-c2n[nH]c(=S)n2N=Cc2ccc(O)cc2O)c1 | inconclusive: 12.6 µM [activator, partial curve] |
| N#CC1=C(N)Oc2cc(N)ccc2C1C1CCCCC1 (centres undefined) | inconclusive: 20 µM [activator, partial curve, poor fit] |
| Cc1ccc(-c2ccc(CN3C(CC(C)C)C(=O)N(Cc4cn(CCC5OCCCO5)nn4)CCS3(=O)=O)cc2)cc1 (centres undefined) | inconclusive: 31.6 µM [activator, single point] |
| Nc1nc(-c2ccccc2)[nH]c(=O)c1N | inactive |
| CSCc1ccc(C(=O)NC2CC(C)(C)Cc3c2cnn3-c2ccc(F)cc2)o1 (centres undefined) | inconclusive: 11.2 µM [activator, partial curve] |
| CCN(CC)c1ccc(-n2nc3cc(C)c(NC(=O)c4ccccc4C)cc3n2)c(C)c1 | inconclusive: 35.5 µM [activator, single point] |

| Structure (SMILES) | Potency |
| --- | --- |
| CCc1ccc(S(=O)(=O)NCc2nc3cccnc3n2Cc2cccc(OC)c2)cc1 | inconclusive: 35.5 µM [activator, single point] |
| Cc1c(CN2CCC(CO)(CCOc3ccccc3)CC2)[nH]c2ccc(Cl)cc12 | inconclusive: 50.1 µM [activator, single point] |
| COc1cccc(CNC(=O)CN2C(=O)N(c3cccc(Cl)c3)S(=O)(=O)c3ccccc32)c1OC | inactive |
| COc1ccccc1-c1nn2c(=O)cc(CN3CCN(C(=O)/C=C/c4ccccc4)CC3)nc2s1 | inconclusive: 25.1 µM [activator, single point] |
| COc1ccccc1CNC(=O)CSc1nc(=O)[nH]c2c1CCC2 | inactive |
| O=C(c1ccc(Cl)c(Cl)c1)N1CCC(=O)N([C@H](COCc2ccccc2)Cc2ccccc2)CC1 | inconclusive: 17.8 µM [activator, partial curve, poor fit] |
| Cc1cc(C)n2nc(SC3CCCCN(C(=O)c4ccc(F)cc4)C3=O)nc2n1 (centres undefined) | inconclusive: 1.78 µM [activator, partial curve, poor fit] |
| COc1ccc(C2C(C(=O)Nc3ccc(C)cc3C)=C(C)Nc3nc(SCc4cccc(C)c4)nn32)c(OC)c1 (centres undefined) | inactive |
| Cc1ccc(F)cc1C(=O)N1CCCCC1c1cc(C(=O)Nc2ccccc2)no1 (centres undefined) | inactive |
| CCCOc1ccc2c(c1)C(=NN=C(N)N)c1cc(OCCC)ccc1-2 | inconclusive: 31.6 µM [activator, single point] |
| CNC[C@H]1Oc2ccc(NC(=O)Cc3cn(C)c4ccccc34)cc2CC(=O)N([C@@H](C)CO)C[C@H]1C | inconclusive: 50.1 µM [activator, single point] |
| O=C(CSc1nc(O)cc(=O)n1-c1ccccc1)Nc1ccccn1 | inconclusive: 14.1 µM [activator, partial curve, poor fit] |
| CCCCN(CC)S(=O)(=O)c1ccc(C(=O)N(CCCN(C)C)c2nc3cc(C)cc(C)c3s2)cc1 | inconclusive: 20 µM [activator, partial curve] |
| O=C(c1cc2n(n1)C(C(F)(F)F)CC(c1ccco1)N2)N1CCc2ccccc2C1 (centres undefined) | inconclusive: 50.1 µM [activator, partial curve, poor fit] |
| COC(=O)[C@]12CCCCC=C1N(Cc1cccc3ccccc13)C(=O)[C@H](CC(=O)NCc1ccc(C)o1)C2 | inconclusive: 35.5 µM [activator, single point] |
| O=C(OCc1cn([C@@H]2C[C@H](c3ccccc3)N(C(=O)C3CCCCC3)C[C@H]2O)nn1)c1ccccc1 | inconclusive: 31.6 µM [activator, single point] |
| O=C(COc1ccc(Br)cc1CNC1CCCCC1)NCCc1ccccc1 | inactive |
| COc1ccccc1/C=C/C=C1\Oc2c(ccc(O)c2CN(C)C)C1=O | inconclusive: 5.62 µM [activator, partial curve, poor fit] |
| O=C(OCC(=O)N1CCN(C(=O)c2ccco2)CC1)c1ccccc1C(=O)c1ccc(Cl)cc1 | inconclusive: 25.1 µM [activator, partial curve, poor fit] |
